According to paper PMC3210601, “New Tetromycin Derivatives with Anti-Trypanosomal and Protease Inhibitory Activities” (Marine Drugs, 2011):

Test: Cytotoxicity Alamar Blue assay, J774.1 macrophages
Conditions: mouse

| SMILES | IC50 at 24 h [µM] |
| --- | --- |
| COc1cc(C)c(C(=O)NC2C(C)OC(OC3CC(C)=CC4C3CC(C)C3/C(C)=C\CC/C(C)=C/C5(C)C=C(C(=O)O)C(C)CC56OC(=O)C(=C6O)C(=O)C43C)C(O)C2(C)O)c(O)c1 (stereo not shown) [Compound 1, Tetromycin 1] | > 100 |
| COc1cc(C)c(C(=O)OC2C(C)OC(OC3CC(C)=CC4C3CC(C)C3/C(C)=C\CC/C(C)=C/C5(C)C=C(C(=O)O)C(C)CC56OC(=O)C(=C6O)C(=O)C43C)C(O)C2O)c(OC)c1 (stereo not shown) [Compound 2, Tetromycin 2] | 50.2 |
| COc1cc(O)cc(C)c1C(=O)OC1C(C)OC(OC2CC=C(C)C3C2CC(C)C2/C(C)=C\CC/C(C)=C/C4C=C(C(=O)O)C(C)CC45OC(=O)C(=C5O)C(=O)C32C)C(O)C1O (stereo not shown) [Compound 3, Tetromycin 3] | 25.7 |
| COc1cc(O)cc(C)c1C(=O)OC1C(C)OC(OC2CC(C)=CC3C2CC(C)C2/C(C)=C\CC/C(C)=C/C4(C)C=C(C(=O)O)C(C)CC45OC(=O)C(=C5O)C(=O)C32C)C(O)C1O (stereo not shown) [Compound 4, Tetromycin 4] | 27.5 |
